Results on 92 molecules are retold here after PubChem BioAssay AID463173 (ICCB-Longwood Screening Facility, Harvard Medical School, 2010).

Structures are written as SMILES. Out of some 52,000 compounds screened, about 1,700 (3.3%) were called active. Rule as the data show it: active = survival mostly below about 52% (no sharp cut-off); inactive = mostly above about 56%. Some of the results follow.

In this assay the test system is Wild type. The assay can be described thus: growth inhibition of S. aureus wild type versus tarO mutant, primary screen, teichoic acid synthesis inhibitors, RN4220, OD600 (AID 463173). Conditions: S. aureus RN4220 wild type/DeltatarO growth, OD600, 18 h, hits give low values, screened at 18.75 µg/mL (by protocol).
On to `O=C(CCS(=O)(=O)c1cc2c(cc1Cl)NC(=O)CO2)NCCc1ccc(Cl)cc1`, for which the survival is inactive: 116%. Turning to `CC(=O)N1c2ccccc2C(=O)C1N1CCN(c2ccc(F)cc2)CC1` (configuration not stated), the survival was inactive: 67%. Then `CC(=O)N(Cc1cccnc1)Cc1cc2cc3c(cc2[nH]c1=O)OCCO3`, with inactive: 103%; and `COc1ccc(NC(=O)c2ccc(CNS(=O)(=O)c3ccc4c(c3)C(C)(C)C(=O)N4C)cc2)cc1`, with inactive: 114%; and `COc1cccc(CNC(=O)C2CCCN(c3ncnc4onc(-c5ccc(F)cc5)c34)C2)c1` (configuration not stated), with inactive: 99%.

As to `Cc1c(C)n(Cc2ccccc2)c2ccc(C(=O)NCCc3ccccc3Cl)cc12`, the survival was inactive: 72%. With `CC(C)OCCCNC(=O)CN1C(=O)CSc2ccc(S(=O)(=O)N3CCCCC3)cc21`, the survival is inactive: 73%. Then `Cc1oc(C(=O)O)cc1CSC(C)C(=O)O` (configuration not stated), with inactive: 115%. On to `O=C(Nc1ccc2c(c1)N(C1CCCC1)C(=O)c1ccccc1S2)c1cccc(F)c1`, for which the survival is inactive: 53%. Then `CC(C)Oc1ccc(CNC(=O)CCn2c(=O)c3cccn3c3ccc(F)cc32)cc1`, with inactive: 75%; and `COc1cccc(-n2c(=O)c3c(C)c(C(=O)N(C)C)sc3n(CC(=O)Nc3ccc(C)cc3Cl)c2=O)c1`, with inactive: 88%; and `O=C1CC(c2nc(-c3cccc(Cl)c3)no2)CN1c1ccc2c(c1)OCCO2` (configuration not stated), with inactive: 148%. Then `Cc1ccc(Cl)cc1NCc1nnc2n1CCCCC2`, with inactive: 75%. Then `O=C(NCCc1csc(-c2cccc(F)c2)n1)c1ccc(Br)o1`, with inactive: 73%; and `O=c1c2cc3sccc3n2cc(-c2ccccc2)n1-n1cccc1`, with inactive: 116%; and `Cc1n[nH]c(C)c1S(=O)(=O)N(CC(=O)NCc1ccccc1Cl)c1ccc(C(C)C)cc1`, with inactive: 67%. `Cc1ccc(-n2nnnc2C2CCN(S(=O)(=O)c3ccc(OC(F)(F)F)cc3)CC2)cc1`: the survival is inactive: 115%. Then `Cc1ccc(OCC(O)CN2C(=O)NC(C)(C)C2=O)c(Cl)c1` (configuration not stated), with inactive: 110%. Then `CCN(C(=O)Cn1c(=O)oc2cc(S(=O)(=O)N3CCCC3)ccc21)c1cccc(C)c1`, with inactive: 80%.

Regarding `CCOc1ccccc1CNC(=O)CCc1cn(Cc2ccc(Cl)cc2)c2ccccc12`, the survival is inactive: 77%. Then `CC1(C)CC(=O)c2cnc(N)nc2C1`, with inactive: 112%. `Nc1nonc1/C(=N/O)N1CCCC1`: the survival was inactive: 102%.

As for `Cc1ccc(NC(=O)CN2C(=O)COc3ccc(S(=O)(=O)N4CCCCCC4)cc32)cc1C`, the survival is inactive: 91%. With `COCCCNC(=O)CSc1nc2ccccc2c(=O)n1Cc1ccco1`, the survival is inactive: 75%. Then `CCOc1ccc(CCNC(=O)c2c(C)oc3ncnc(N4CCOCC4)c23)cc1`, with inactive: 76%. As for `Cc1cc(C)cc(NC(=O)CN(C)S(=O)(=O)c2ccc3[nH]c4c(c3c2)CCCC4)c1`, the survival was inactive: 75%.

For the molecule `COc1ccc(C(=O)Nc2ccc(OCc3cc(=O)n4ccccc4n3)cc2)cc1`, the survival is inactive: 72%. Then `CCC(C)(C)c1nnc(N)s1`, with inactive: 104%; and `N#C/C(=C\c1ccc(-c2ccc(F)cc2F)o1)c1nc2ccccc2[nH]1`, with inactive: 38%; and `CCOc1cccc(CNc2ccc(O)cc2)c1OCc1ccccc1Cl`, with inactive: 54%. Then `COc1ccc(CNC(=O)c2ccc3[nH]c(C)c(C)c3c2)c(OC)c1`, with inactive: 71%; and `CN1C(N)=NC(=O)C1(CO)CO`, with inactive: 104%; and `CC(=O)n1c2ccccc2c2cc(Cl)ccc21`, with inactive: 112%. As to `CCc1nnc2c(NCCc3ccc(OC)c(OC)c3)nc3ccccc3n12`, the survival was inactive: 133%. `Cc1ccc2cc(C#N)c(SCC(=O)N3CCCC3)nc2c1`: the survival is inactive: 110%. Then `O=C1CC(c2ccco2)CC(O)=C1C=NCCN1CCNCC1` (configuration not stated), with inactive: 113%.

Turning to `COc1ccc(-c2onc(C)c2C)cc1S(=O)(=O)NCc1ccc(Br)cc1`, the survival is inactive: 75%. Then `NNC(=O)C1CCN(S(=O)(=O)c2ccccc2N)CC1`, with inactive: 106%. With `Cc1ccc(C)c(N2CCN(C(=O)CCS(=O)(=O)c3ccc4c(c3)CC(=O)N4C)CC2)c1`, the survival was inactive: 80%. `CCc1ccc(NC(=O)CC2C(=O)N(c3ccc(Cl)cc3)C(=O)N2Cc2cccs2)cc1` (configuration not stated): the survival is inactive: 47%. Then `CCOC(=O)c1ccc(S(=O)(=O)N2CCC(C(=O)OCC)CC2)cc1`, with inactive: 95%.

For the molecule `CCOc1ccc(NS(=O)(=O)c2ccc3c(c2)CCN3C(C)=O)cc1`, the survival was inactive: 128%. With `COc1ccc(-c2cc(C(F)(F)F)nc(SCCC(=O)Nc3cc(C)on3)n2)cc1`, the survival is inactive: 106%.

`COc1cccc(C2CC(=O)Nc3c2c(=O)n(C)c2ncnn32)c1OC` (configuration not stated): the survival was inactive: 140%.

Consider `COC(=O)c1c(NC(=O)COc2cc(C)c(Cl)c(C)c2)sc2c1CCCC2`, for which the survival is inactive: 140%. Then `COc1ccc(OC)c(S(=O)(=O)Nc2cc3c(C(C)=O)c(C)oc3c3ccccc23)c1`, with inactive: 69%; and `Cc1ccc(OCC(=O)N(Cc2ccco2)C2CCS(=O)(=O)C2)cc1` (configuration not stated), with inactive: 101%; and `CC(Oc1ccc(F)cc1)C(=O)Nc1cc(-c2ccc(F)c(F)c2)no1` (configuration not stated), with inactive: 86%.

For `CC(=O)N1C(Nc2ccc(Cl)cc2)CCN1c1ccccc1` (configuration not stated), the survival was inactive: 110%. Then `CN1C(=O)N(C)C2OC3OC4C(OC3OC21)N(C)C(=O)N4C` (configuration not stated), with inactive: 108%. As to `Cn1cc(CCC(=O)NCc2ccc(Cl)cc2)c2ccccc21`, the survival was inactive: 107%. For the molecule `Cc1cc(C)cc(NS(=O)(=O)c2ccc(-n3cccn3)cc2)c1`, the survival is inactive: 83%.

With `COc1ccc(-c2cccc(NS(=O)(=O)c3ccc(C)s3)c2)nn1`, the survival was inactive: 91%. With `COCCCNC(=O)c1oc2c(c1C)-c1nn(Cc3ccc(Cl)cc3)cc1CC2`, the survival was inactive: 78%.

As for `CCOc1cc(CNc2ccc(C(=O)O)cc2)ccc1OCc1ccccc1`, the survival was inactive: 57%. Then `O=C(O)c1c(-c2ccccc2)oc2ccc(OCc3ccc(Cl)c(Cl)c3)cc12`, with active: 0%; and `Cc1ccc(C)[n+](C)c1`, with inactive: 102%. With `CC1CCC(Nc2ncnc3onc(-c4ccc(F)cc4)c23)CC1` (configuration not stated), the survival was inactive: 99%. `COc1cccc(-n2c(=O)c3c(C)c(C)sc3n(CC(=O)Nc3ccccc3OC)c2=O)c1`: the survival is inactive: 87%. Then `CCOc1cccc(C(=O)N(Cc2ccc(N(C)C)cc2)CC2CCCO2)c1` (configuration not stated), with inactive: 96%. `Cc1ccccc1CC1C(=O)Nc2ccc(Br)cc21` (configuration not stated): the survival is inactive: 69%. Then `CCc1ccc(CNCc2c(C(=O)O)c(C)n(Cc3c(F)cccc3Cl)c2C)cc1`, with inactive: 101%.

`Cn1c(=O)n(C)c2cc(N3CCOCC3)c(NS(=O)(=O)c3ccc(C(C)(C)C)cc3)cc21`: the survival was inactive: 81%. Then `CC1CCN(S(=O)(=O)c2ccc3c(ccc(=O)n3CC(=O)Nc3ccc(C(C)C)cc3)c2)CC1`, with active: -2%; and `CCOc1ccc(N(C(=O)c2ccccc2F)S(=O)(=O)c2ccc3c(c2)n(C)c(=O)n3C)cc1`, with inactive: 80%. Then `CCc1ccccc1NC(=O)N1CCC(CN2CCc3ccccc3C2)CC1`, with inactive: 60%; and `Cc1ccc(C(=O)CCC(=O)Nc2ccc(C)cc2C)cc1`, with inactive: 115%; and `CCOC(=O)c1c(-c2ccc(C)cc2)csc1NC(=O)c1cc(-c2ccc(Cl)cc2)on1`, with inactive: 90%. Then `Nc1nc(SCC(=O)Nc2cccc(C(F)(F)F)c2)n[nH]1`, with inactive: 81%; and `COc1ccc(-c2nc(CCNC(=O)c3cccs3)cs2)cc1`, with inactive: 120%; and `CNC(=O)Cn1nc(-c2ccc(Cl)cc2)c2ccccc2c1=O`, with inactive: 76%. Consider `CCOC(=O)c1ccc(NC(=O)CC2Sc3ccc(C(F)(F)F)cc3NC2=O)cc1` (configuration not stated), for which the survival was inactive: 81%. Then `N=C(N)SCC(=O)Nc1ccccc1`, with inactive: 120%; and `COc1ccc(NC(=O)CSC2=Nc3ccccc3C3=NC(CCC(=O)NCc4ccc(F)cc4)C(=O)N23)cc1Cl` (configuration not stated), with inactive: 82%. `CCCCC(CC)CNC(=O)CN(C)S(=O)(=O)c1ccc2c(c1)c(=O)n(C)c(=O)n2C` (configuration not stated): the survival is inactive: 81%. Then `Cc1ccc(CN(C(=O)COc2ccc(Cl)cc2)c2ccccn2)o1`, with inactive: 79%; and `O=C(N=Nc1c(O)[nH]c2ccccc12)C1C2CCCCC21` (configuration not stated), with inactive: 116%; and `Cc1cc(NC(=O)CCNS(=O)(=O)c2ccc3c(c2)CCCC(=O)N3)ccc1Br`, with inactive: 67%. Regarding `Cc1nn(C)c2c1c(-c1ccccc1)cc(=O)n2Cc1ccccc1Cl`, the survival is inactive: 72%. Take `CCCSc1nsc(SCCC)c1C(N)=O`: the survival was inactive: 103%.

For the molecule `COc1cccc(N2CCN(C(=O)C3CCN(S(=O)(=O)c4cccc5nonc45)CC3)CC2)c1`, the survival was inactive: 57%. Then `COc1ccc(CCNC(=O)Cn2nc(C)n3c(cc4cc(F)ccc43)c2=O)cc1OC`, with inactive: 121%; and `CCOc1ccccc1NC(=O)c1c(NCc2ccc(C)o2)sc2c1CCC(C)C2` (configuration not stated), with inactive: 143%. Then `Cc1ccc(C)c(N2CCN(C(=O)c3cc4c(=O)n(Cc5ccco5)ccc4nc3C)CC2)c1`, with inactive: 84%. Then `COc1cccc(C(=O)Nc2cccc(NC(=O)c3ccc(Cl)cc3Cl)c2)c1`, with inactive: 95%.

Regarding `CCCCN(C)C(=O)Cn1c(C2CC(=O)N(c3ccc(C)cc3)C2)nc2ccccc21` (configuration not stated), the survival was inactive: 86%. Then `COc1ccc(S(=O)(=O)Nc2ccc3oc4c(c3c2)C(=O)CC(C)(C)C4)cc1`, with inactive: 135%; and `COC(=O)c1cc(S(=O)(=O)NCC2CCN(Cc3ccc(C)cc3)CC2)cn1C`, with inactive: 80%; and `CCC(C)Nc1sc(S(=O)(=O)CC)nc1S(=O)(=O)c1ccc(C)cc1` (configuration not stated), with inactive: 78%. Then `CCOc1ccc(CNC(=O)CCCn2nc(C)c3sc4ccccc4c3c2=O)cc1`, with inactive: 89%.

As for `Cc1ccc(C)c(NC(=O)Cn2c(=O)nc(-c3ccccc3)c3ccccc32)c1`, the survival was inactive: 74%. Then `COc1cc(C(=O)OC(C)CN2C(C)CCCC2C)cc(OC)c1OC` (configuration not stated), with inactive: 109%.
